# Source: the supplement of paper PMC10126150
# Values marked as one replicate rest on one cluster of the flow cell; about a third of the high ones do not repeat.
# Test system: ATP
# Assay: switch fluorescence ratio, 500 uM ATP over buffer (Cy3 cluster intensity, sum of 5 cycles each) (fold (ratio)); higher = stronger signal-on switching upon ATP binding; sequences stand for … in TCGTCGGCAGCGTCAGATGTGTATAAGAGACAGTTTTTTTTTTTTTTTTTTTTTTTTT…TC
# Details: aptamer strand: ATP DNA aptamer (quencher-CACCTGGGGGAGTATTGCGGAGGAAGG + anchor), 100 nM annealed; ATP concentration: 500 uM; one replicate
# Procedure, shortened: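 Cy3-labelled switching-strand clusters on a modified Illumina MiSeq flow-cell were annealed to 100 nM quencher-labelled ATP aptamer and imaged first in selection buffer, then after 15 min with 500 uM ATP at 22 °C. NaOH stripping and re-annealing separated each of five buffer/ATP cycles, and clusters outside 100-1000 RFU were excluded. The fluorescence ratio sums target-cycle Cy3 intensity over buffer-cycle Cy3 intensity per cluster and averages it per switch-domain sequence.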
# 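Further: ATP exposure 15 min at 22 °C before imaging.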
sequence,measurement,value
GCTAACATAC,switch fluorescence ratio,1.73
ATACGATTCA,switch fluorescence ratio,1.01
CAGGGTCAAC,switch fluorescence ratio,0.957
GTAGGAAACT,switch fluorescence ratio,0.994
TCGCCGTAGG,switch fluorescence ratio,1.01
ATGCAGTCTT,switch fluorescence ratio,0.953
TGAAAGAGCA,switch fluorescence ratio,0.969
CGTCACAGGG,switch fluorescence ratio,1.12
TGTTGTAT,switch fluorescence ratio,1
TCGGCTCATC,switch fluorescence ratio,1.02
TAATAAAGCC,switch fluorescence ratio,1
CACGGCTCTA,switch fluorescence ratio,1.07
ACGAGCCGGG,switch fluorescence ratio,1.04
CAGCGGGAAC,switch fluorescence ratio,1.13
ATGGGAGTGG,switch fluorescence ratio,1.02
TACCCAATTT,switch fluorescence ratio,1.05
TCCGTTGTAA,switch fluorescence ratio,2.03
GAAGTCGTTA,switch fluorescence ratio,0.978
TAGCATGAA,switch fluorescence ratio,1.03
GACCCGCCGG,switch fluorescence ratio,1.04
ACTTTGATGA,switch fluorescence ratio,1
ACTTTAGTTT,switch fluorescence ratio,0.988
TATGTGAATT,switch fluorescence ratio,0.993
CGGCCGTCAA,switch fluorescence ratio,1.4
TCCGCGGGCA,switch fluorescence ratio,1.28
AGGTTTACGT,switch fluorescence ratio,0.972
AGGGGTTGAA,switch fluorescence ratio,1.05
AGACAGGTGT,switch fluorescence ratio,2.35
TTCTTTAATC,switch fluorescence ratio,1.01
GTGGCTGGAA,switch fluorescence ratio,0.996
TTGGCCAAGT,switch fluorescence ratio,0.98
CTGGGAAGCT,switch fluorescence ratio,1.04
AGGTAAGTTG,switch fluorescence ratio,1
TAATATTTTG,switch fluorescence ratio,0.988
TGAAGGATTA,switch fluorescence ratio,1.01
TGTGAGTCTT,switch fluorescence ratio,0.979
CGCAACCATT,switch fluorescence ratio,1.13
GGCTGAGTTG,switch fluorescence ratio,0.931
CTATGTGG,switch fluorescence ratio,0.966
TTTCCTTGTA,switch fluorescence ratio,1.02
TGGGTTAGT,switch fluorescence ratio,0.967
ATGTCGCCAT,switch fluorescence ratio,0.987
TTTAATTAAC,switch fluorescence ratio,1.01
TCAAGATTTA,switch fluorescence ratio,0.928
GTGATCTTGT,switch fluorescence ratio,0.954
AAATTAGGGT,switch fluorescence ratio,0.978
CATCAATAGT,switch fluorescence ratio,1.08
CAGACCTTAG,switch fluorescence ratio,0.968
CCCAAGTCGA,switch fluorescence ratio,1.14
CCCTGGCCGA,switch fluorescence ratio,1.02
GTTGTGAGGC,switch fluorescence ratio,1.02
ATAAGTTTG,switch fluorescence ratio,0.962
AGCGAAGGGC,switch fluorescence ratio,1.02
TCCTATTTTT,switch fluorescence ratio,1.03
CTATCAACTT,switch fluorescence ratio,0.989
TACTGTGAAT,switch fluorescence ratio,0.957
AACCACCAGT,switch fluorescence ratio,1.3
TACATTGCGA,switch fluorescence ratio,0.966
CAAGAACGCT,switch fluorescence ratio,1
GACGTTAGCA,switch fluorescence ratio,1.1
TGCATATTGA,switch fluorescence ratio,1.22
ATGGTCCAAG,switch fluorescence ratio,0.97
GATCGAGCGC,switch fluorescence ratio,1.05
CAATCGCATG,switch fluorescence ratio,1.21
CTCATCCTCG,switch fluorescence ratio,1.08
GCAACTGTTA,switch fluorescence ratio,1.07
TCGCGCGAAT,switch fluorescence ratio,1.01
GCAGCATTTA,switch fluorescence ratio,1.19
TGGACTTTCT,switch fluorescence ratio,1.01
TCAGACCGCA,switch fluorescence ratio,2.31
TACGGTAGTG,switch fluorescence ratio,0.996
GGGTCCTATC,switch fluorescence ratio,1.01
GATTGGATAT,switch fluorescence ratio,1.02
CAATAATCTG,switch fluorescence ratio,1.03
TGCATCGTCG,switch fluorescence ratio,1.2
GGTGGGTAGC,switch fluorescence ratio,0.984
GCCTACGACA,switch fluorescence ratio,1.46
TGATTAGTAC,switch fluorescence ratio,0.983
TGGGTCTAAA,switch fluorescence ratio,0.977
CCGCGCACTG,switch fluorescence ratio,1.66
CTGGGTATGG,switch fluorescence ratio,0.961
GAACGGTAAC,switch fluorescence ratio,1.24
GTTCGCTTGG,switch fluorescence ratio,1.03
TTCGATATGA,switch fluorescence ratio,1.01
CCTGCTTGCT,switch fluorescence ratio,1.07
TGACTATGCA,switch fluorescence ratio,1.03
CATTGGCCCG,switch fluorescence ratio,1.02
CCTTCCAGTA,switch fluorescence ratio,2.66
CGCTTGCTGA,switch fluorescence ratio,0.958
TCGTGGCAGC,switch fluorescence ratio,1.01
CGTTTATCCA,switch fluorescence ratio,1
AACTCCTATT,switch fluorescence ratio,1.03
GTCTTTGATC,switch fluorescence ratio,0.981
CCGATAGCGG,switch fluorescence ratio,1.34
GAGTCCGAGA,switch fluorescence ratio,1.64
GAGTGCGCTC,switch fluorescence ratio,0.92
GGATCGGTGG,switch fluorescence ratio,1.06
ATACGGTTCT,switch fluorescence ratio,1.06
GGGAGTAATC,switch fluorescence ratio,1.08
TTGTGCGGCG,switch fluorescence ratio,1.01
ATTGTTAAGG,switch fluorescence ratio,1.02
GTATATCAGT,switch fluorescence ratio,1.04
ACGAGGTATT,switch fluorescence ratio,0.987
ATGTGCATCG,switch fluorescence ratio,0.973
TGGACTGGCT,switch fluorescence ratio,1.04
CGAGGACTCT,switch fluorescence ratio,0.983
TTCTGATAGT,switch fluorescence ratio,0.966
TGGGTGATCA,switch fluorescence ratio,1.08
TGGGGCTCCT,switch fluorescence ratio,1.01
TTTGGAGATT,switch fluorescence ratio,0.996
ACTTCAGTCC,switch fluorescence ratio,0.996
TATACTAGAG,switch fluorescence ratio,1.07
AGAGACCGAT,switch fluorescence ratio,1.04
TGCGACATCC,switch fluorescence ratio,1.11
TGTGATAAGT,switch fluorescence ratio,0.955
TAAAAGCCTA,switch fluorescence ratio,0.976
AAAAGTCGTG,switch fluorescence ratio,0.956
TTCTTGAAAA,switch fluorescence ratio,0.975
CGCTCATGTT,switch fluorescence ratio,1.01
CTAAGGCCCT,switch fluorescence ratio,1.01
TGGTAGGCGG,switch fluorescence ratio,0.989
GTTTCGTTTG,switch fluorescence ratio,0.972
CGTATCGGGA,switch fluorescence ratio,1.01
GATGAGTTAT,switch fluorescence ratio,0.992
GGGCCCCGTT,switch fluorescence ratio,0.967
TCACACGTAG,switch fluorescence ratio,1.06
GGCTCTGAGC,switch fluorescence ratio,1.03
ATATGAGTAG,switch fluorescence ratio,0.966
GATTAACGGA,switch fluorescence ratio,1.06
TGGCGGCAGG,switch fluorescence ratio,1.04
AGCCACAGGA,switch fluorescence ratio,1.04
AAAGTTTACT,switch fluorescence ratio,1.14
AGCAGTGCGC,switch fluorescence ratio,1.07
CCACGGATGT,switch fluorescence ratio,1.04
AATATGTAGG,switch fluorescence ratio,1.05
AGTGTATTAG,switch fluorescence ratio,1.05
CTAATGTGTA,switch fluorescence ratio,0.979
CGTGTGTTTG,switch fluorescence ratio,0.974
TGGGCGTTAC,switch fluorescence ratio,1.05
TGAGGGACTT,switch fluorescence ratio,1
AGTTGGCTT,switch fluorescence ratio,1.02
GGTCAAGGTC,switch fluorescence ratio,1.02
GGTGTAGTGG,switch fluorescence ratio,1.01
CGGGACAGT,switch fluorescence ratio,0.96
TAGTTGAAGC,switch fluorescence ratio,0.997
GCTGCCCGGA,switch fluorescence ratio,1.03
CATGTGACCG,switch fluorescence ratio,0.995
CTGGTAAGAG,switch fluorescence ratio,0.997
GTGAGATGGT,switch fluorescence ratio,0.962
CATGGGTTTC,switch fluorescence ratio,0.98
AATAGCACCC,switch fluorescence ratio,1.08
GAACGGGTTC,switch fluorescence ratio,1.01
CGGTGCCGCA,switch fluorescence ratio,1.14
ATAGCCATA,switch fluorescence ratio,1
CACGAGACGG,switch fluorescence ratio,1.16
GTGCTTAGAC,switch fluorescence ratio,1.05
CAAATGGGCA,switch fluorescence ratio,0.977
TTTCCAACTT,switch fluorescence ratio,1.01
CTAAATGCTT,switch fluorescence ratio,0.963
ATTCGGAACA,switch fluorescence ratio,0.991
CGGGAGGGCA,switch fluorescence ratio,0.953
AGTGGCATCT,switch fluorescence ratio,1.03
CTACGGTATG,switch fluorescence ratio,1.11
CAGCCCTTAT,switch fluorescence ratio,1.04
CTGGAGGGG,switch fluorescence ratio,0.967
ACGGCGGAGT,switch fluorescence ratio,0.98
ATTTCGTGTC,switch fluorescence ratio,1.02
CCGAGCTCTC,switch fluorescence ratio,6.25
AAAGTACTAC,switch fluorescence ratio,1.22
TGTATGTTTG,switch fluorescence ratio,0.974
AAGGAGCACG,switch fluorescence ratio,1.01
GTGCCGTTCA,switch fluorescence ratio,1.01
AGTTGGAATC,switch fluorescence ratio,1
CTTTTTCCGA,switch fluorescence ratio,1.05
GTATTAAGGT,switch fluorescence ratio,1.01
AGTTAATTAC,switch fluorescence ratio,1.1
ACCCGTCGGC,switch fluorescence ratio,1.01
TTCATTAGCC,switch fluorescence ratio,1.02
CGGAAAGATT,switch fluorescence ratio,1.02
GGTTATATTG,switch fluorescence ratio,0.968
TTCGATGCTT,switch fluorescence ratio,2.1
CAGTTTAAAA,switch fluorescence ratio,0.974
TACGCCGTG,switch fluorescence ratio,0.975
ACAGTACTGC,switch fluorescence ratio,1.16
GTTCCGAATA,switch fluorescence ratio,1.25
AGAAGGATAT,switch fluorescence ratio,0.945
GACTCAGCTA,switch fluorescence ratio,1.97
CCATTTCTAG,switch fluorescence ratio,1.02
AGATTTGCCC,switch fluorescence ratio,0.944
TCGTGAGGGC,switch fluorescence ratio,0.984
TATTTCAAGC,switch fluorescence ratio,1.01
AAACGGTTCC,switch fluorescence ratio,1.41
TATAGTATTA,switch fluorescence ratio,0.922
CTTGACGCTC,switch fluorescence ratio,1.18
ATCACGAGTG,switch fluorescence ratio,0.999
AAAGTTTGC,switch fluorescence ratio,1.02
TAAACGAATA,switch fluorescence ratio,1.01
CTAAAGAAGG,switch fluorescence ratio,0.974
GGACCAGCCG,switch fluorescence ratio,1.08
TTAGGCGCTA,switch fluorescence ratio,0.983
